# ± gives the standard deviation of the averaged measurements. The list shows a part of the results.
# Tested on: PfAP2-EXP AP2 domain (GST-tagged)
# Test: gcPBM binding intensity (ln(normalized median fluorescence intensity)); higher = stronger DNA binding
# Summary of the method: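 After 1 h on an Agilent 4 × 180k array of primer-extended double-stranded 36-bp intergenic genomic probes and negative controls, bound GST-tagged P. falciparum DNA-binding domains were detected with Alexa488 anti-GST antibody and scanned at 488 nm. The domains had been expressed in E. coli, and binding took place in 1× PBS with 1% milk, 0.2 mg/ml BSA, 0.5% salmon testes DNA and 0.03% Triton X-100. Binding intensity is the highest Masliner-normalised natural-log median intensity across replicate spots of either probe orientation.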
row,Sequence,gcPBM binding intensity (ln)
1,TTGTATATTATATGTACACACAATAAGTTAATATAA [CACACA_site909],8.41 ± 0.3
2,ATAATATATTTTTGAACACACAATATAGATTTATAT [CACACA_site7857],8.26 ± 0.48
3,TTCCTTTGTCCTAACTGTACTCAAATTTATTAGTGG [XGTACX_site226],8.96 ± 0.43
4,TAAATACAAAAATGTACACACATATATATATTTTTA [CACACA_site3503],8.2 ± 0.27
5,CGGCACATTATATATACACACATATAAATATATACA [CACACA_site8086],8.39 ± 0.37
6,TAAATTTTAATATGCACACAAAATGTTATATTAAAA [CACACA_site4366],8.14 ± 0.26
7,TATATAAATATATATACACACAAAAAAAAAAAAAAA [CACACA_site1406],8.36 ± 0.52
8,TAAATGAAAACCATTAGTACTTATACTGATAAATGT [XGTACX_site763],8.34 ± 0.4
9,TATATCTTAATATACACACACACATATATATATATA [CACACA_site4968],10 ± 0.35
10,TAAATATTTTTATGGGTGCGTTCTTTAGCGCAATTT,8.67 ± 0.14
11,CATATAAAAAATATGGTGCAGTTTTTTTTTTTTTTT,8.48 ± 0.16
12,TATATATATAATGTTTGTACATATTAAATATATATG [XGTACX_site407],8.95 ± 0.11
13,AAAAAAAGTTGATACTGTACTCGTGCATTATGAATA [XGTACX_site5558],9.06 ± 0.33
14,CTTATTAAAATTATTTGTACACAATATGTAAAAGTA [XGTACX_site7237],8.35 ± 0.39
15,TAATTAAAATTATCTACACACCTTTATAAATATATA [CACACA_site3928],8.15 ± 0.4
16,AGGTATTTTCTTGTGACACACATATATATATATATT [CACACA_site2220],9.13 ± 0.38
17,TTTATATTGATATATACACACATATACATCCTATTT [CACACA_site7442],8.46 ± 0.4
18,ATTATTGTTGTTCATGTACACACTATAATAAAAGCA [CACACA_site4168],8.64 ± 0.32
19,TTTTGCAATAATGTTGCACACTAAATAGTCATATAT [CACACA_site7977],8.61 ± 0.38
20,ATTAATTATTTCAATGCATGTGAACACTATATATAA [TGCATGCA_site600],9.03 ± 0.44
21,AAACTTGTAAGAAACACACACACACGCATATAAATA [CACACA_site6518],8.84 ± 0.68
22,ATAAATAAAATATGCACACAAATATAGGAAACAACA [CACACA_site2561],9.03 ± 0.38
23,AATATTTAAGTACTGGTGCGTGTATATAATGATTAA [GTGCAC_site9633],8.665 ± 0.078

row,Sequence,gcPBM binding intensity (ln)
1,TTTATTCCCGCATATAGTACATATACCATTTAATGT [XGTACX_site7011],9.01 ± 0.47
2,GTAAAAAAAGAGCACACACACAAAAACACCCACAAA [CACACA_site1292],8.85 ± 0.54
3,ATATAATATGGTATTACACACTGTTATAAGTATGGC [CACACA_site2094],8.57 ± 0.44
4,CATAAATACACTGTAGCGCACACGGCCAAAAAAAAA [CACACA_site8537],8.87 ± 0.48
5,CATAATTTACATAAAAGTACATATATATTAATGACG [XGTACX_site6247],8.57 ± 0.37
6,TTAAATAAAATTTATTGTACATAAAATTAAATATAG [XGTACX_site3039],8.37 ± 0.24
7,TCCTTTTCTTAATTTAAAAAATATAAAAAAAACGAA [CACACA_negctrl_site1821],8.28 ± 0.36
8,AGAAGCATACATCAAGCACACACACCCACACCCACA [CACACA_site8014],8.74 ± 0.35
9,ACACGTTTATATAAAAAATTAAAATTTTTCTTATTT [CACACA_negctrl_site1523],8.54 ± 0.33
10,ATAACAAAATAAAACACACACACAAATGTACAGATA [CACACA_site5358],8.9 ± 0.39
11,TATTCATGTTTAAAAAGTACATATTATGGTAACATT [XGTACX_site4533],8.46 ± 0.45
12,ATTTTTGTGTTTACACGTACGTGTAAATTATTTTTC [XGTACX_site1869],9.04 ± 0.43
13,ACATATCTACACAGTGGTACTTCCATTAATATATAC [XGTACX_site3827],8.81 ± 0.34
14,AAAAGGGATAAATGTGCGCACATGTTATATATATAT [GTGCAC_site9534],10.03 ± 0.042
15,AACAATGTTGTACATACACACACACTAATAAAAAAT [CACACA_site8758],8.9 ± 0.5
16,ATTTATTCAAATGGTTGTACTACAAATAAACATTAT [XGTACX_site3378],8.51 ± 0.21
17,TCATAAATTAAACAAACACACACGTTCTTTTATTTA [CACACA_site713],8.38 ± 0.33
18,AATACATACAGACACACACACACATATAAATAAATA [CACACA_site7642],8.66 ± 0.2
19,GCTCATTGAAGTTATACACACCAAATATGTAAATAT [CACACA_site7217],8.52 ± 0.42
20,ATTTTAACGAATATATGTACATAAAAAAAAAAAAGA [XGTACX_site8750],8.91 ± 0.4
21,TAAGTAAAAAATTAAAAAGATTACAGGGGGGGAAGG [XGTACX_negctrl_site491],9.87 ± 0.2
22,GACATAAGATAATTACACATTGTTTCCTCAATAATA [CACACA_negctrl_site1616],8.46 ± 0.32

# Source: the supplement of paper PMC11417369
